Measured values as given in a compilation of properties of binary mixtures (doi:10.1021/je9702403).
The densities may have been worked out from excess volumes.

Test: xn = mol fraction of the nth substance listed
Conditions: 100 kPa

CC(C)O + CC#N
x1 = 1
Conditions | mass density [kg/m3]
293.15 K | 785.3
303.15 K | 776.8
323.15 K | 758.9

CC#N + CC(C)O
mass density [kg/m3]
Conditions | 293.15 K | 303.15 K | 313.15 K | 323.15 K
x2 = 0 | – | – | 760.3 | 749.2
x2 = 0.05 | 781.4 | 770.7 | 759.9 | 748.9
x2 = 0.1 | – | – | 759.8 | 748.9
x2 = 0.15 | 780.9 | 770.4 | 759.8 | –
x2 = 0.2 | – | 770.4 | 759.9 | –
x2 = 0.25 | 780.9 | – | 760.1 | 749.4
x2 = 0.3 | 781 | 770.7 | 760.3 | 749.7
x2 = 0.3501 | 781.2 | 770.9 | 760.6 | 750.1
x2 = 0.4 | – | – | 760.9 | 750.5
x2 = 0.45 | 781.6 | – | – | 750.9
x2 = 0.5 | 781.9 | – | 761.7 | 751.4
x2 = 0.55 | – | – | 762.2 | 752
x2 = 0.5999 | 782.5 | 772.7 | – | 752.6
x2 = 0.6499 | 782.8 | 773.2 | 763.3 | –
x2 = 0.7 | 783.2 | 773.7 | 763.9 | –
x2 = 0.7499 | – | 774.2 | – | –
x2 = 0.7999 | 784 | 774.7 | 765.2 | 755.6
x2 = 0.8499 | – | 775.2 | 765.9 | 756.4
x2 = 0.95 | 785.1 | 776.4 | 767.5 | 758.3

CCCCCl + CC(C)O
mass density [kg/m3]
Conditions | 293.15 K | 303.15 K | 313.15 K | 323.15 K
x2 = 0 | 886.5 | – | 864 | 852.5
x2 = 0.0499 | 881.5 | 870.6 | – | –
x2 = 0.1 | 877.1 | 865.9 | 854.4 | 842.9
x2 = 0.15 | 872.7 | – | 850 | –
x2 = 0.2 | 868.3 | 857.2 | 845.7 | –
x2 = 0.25 | 864 | 852.9 | 841.4 | 829.9
x2 = 0.3 | – | 848.6 | 837.1 | –
x2 = 0.35 | 855 | 844.1 | – | –
x2 = 0.4 | 850.5 | 839.6 | 828.3 | 816.8
x2 = 0.4499 | 845.9 | 835.1 | 823.8 | –
x2 = 0.5 | 841.2 | 830.5 | – | 807.9
x2 = 0.55 | 836.4 | – | – | 803.5
x2 = 0.6 | 831.4 | 820.7 | 809.8 | 798.6
x2 = 0.65 | 826.3 | 815.9 | 805.1 | 794
x2 = 0.6999 | 821.1 | 811 | – | 789.5
x2 = 0.75 | 815.6 | 805.7 | – | 784.7
x2 = 0.8 | – | – | 790.2 | 779.8
x2 = 0.85 | 804.2 | – | 785 | 774.7
x2 = 0.9 | 798.1 | 789.1 | 779.4 | 769.6
x2 = 0.95 | 791.8 | – | 773.8 | –

CC(C)O + CCCCCl
x1 = 1
Conditions | mass density [kg/m3]
293.15 K | 785.3
303.15 K | 776.8
313.15 K | 768
323.15 K | 758.9
